# Experimental data from the supplement of paper PMC11417369.
# ± gives the standard deviation of the averaged measurements. Some of the results follow.
# Tested on: PfAP2-LT AP2 domain (GST-tagged)
# Assay: gcPBM binding intensity (ln(normalized median fluorescence intensity)); higher = stronger DNA binding
# In short: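 Binding intensity is defined as the maximum Masliner-normalised natural-log median intensity across replicate spots for either probe orientation. It was measured on an Agilent 4 × 180k array of primer-extended double-stranded 36-bp intergenic genomic probes and negative controls, to which GST-tagged P. falciparum DNA-binding domains made in E. coli were applied for 1 h in 1× PBS with 1% milk, 0.2 mg/ml BSA, 0.5% salmon testes DNA and 0.03% Triton X-100. Detection was by Alexa488 anti-GST antibody and scanning at 488 nm.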
row,Sequence,gcPBM binding intensity (ln)
1,TCAAAAATTTATATAGTGCAATATATATATAATGTA,8.54 ± 0.49
2,TTGTAATATATAAAAGTGCATATATGGTTCCATATA [GTGCAC_site9544],8.6 ± 0.47
3,TAATTTATTGTACGTGCATGCTATTTTTTATTTTTA [TGCATGCA_site1059],9.13 ± 0.49
4,AACAAAAAAACAAACACACACACACCCATATATATA [CACACA_site3652],10.03 ± 0.042
5,ATATGTGAATAAAAATGTACGTGTTCTTTTTTTTTT [XGTACX_site320],8.71 ± 0.48
6,TCATACATTTTCCTTGCACACATTTATAATTAATGT [CACACA_site614],9.39 ± 0.4
7,AAAAAAAAAAAAAAATGTACATATATATTTATATAT [XGTACX_site229],8.57 ± 0.37
8,TCAAAGGAATTTTTATGTACATATAAACTTTATTCT [XGTACX_site3432],8.66 ± 0.47
9,AACCCCAAGCCGTACTGTACATATATTTTTATTTTA [XGTACX_site142],9.11 ± 0.2
10,AAAAGTTGTATTTGCACACATAAAAAAAAGATATTA [CACACA_site3840],8.98 ± 0.46
11,AAATTCAAACAAATTACACACATTTTTTTTTAATTT [CACACA_site3596],8.91 ± 0.52
12,AAATAAATTTGACCAGTGCAATAACTTTGTATACCT [GTGCAC_site9446],8.77 ± 0.44
13,TATAATATAAAAAAAAGTACACGAATTTTTTTTCAG [XGTACX_site6105],8.36 ± 0.42
14,ACAATATATTTTTGAGCATGCGCAAAAGAGAATGCA [TGCATGCA_site566],8.85 ± 0.42
15,ATCCAAAAGAAAAATAGTACAGATATGAACAATATG [XGTACX_site6944],8.88 ± 0.45
16,ATATATCTATATAGAAATGTATATATATATATGTGT [TGCATGCA_negctrl_site349],9 ± 0.4
17,TATTATTCTACTATTATATTCTATATTATTTATAGT [CACACA_negctrl_site499],8.79 ± 0.49
18,TAAAATCAATGTTCTTGTACTTAAAATGTTTGTTCT [XGTACX_site5490],8.7 ± 0.57
19,AGTATAAAATTTGGTTGTACATTTTTAAAAAAATTA [XGTACX_site7519],8.29 ± 0.42
20,AAAATTAAATTATTTACACACAATATTAAAATATTT [CACACA_site3244],8.57 ± 0.47

row,Sequence,gcPBM binding intensity (ln)
1,TTTTTTTTTTTTTATACACACATTAAAATAAAAAAG [CACACA_site3946],8.33 ± 0.34
2,CTCTTCCTTAATTTTTGTACTTAAAATTTTTTTTTT [XGTACX_site1628],8.7 ± 0.45
3,AAAGAAAAAAAAAAAACACACAAAAAAAATCAAAAT [CACACA_site2871],9.04 ± 0.57
4,TTATGCAAAAATAAATCAATATGTTGATATGTAAAT [GTGCAC_negctrl_site128],8.73 ± 0.45
5,ATATAATTTAATTTCTGTACATAAGAGAAAAAACAA [XGTACX_site4865],8.54 ± 0.39
6,AACATATACTGTTTATGTACACATTGTTATATTAAT [XGTACX_site4276],8.96 ± 0.3
7,TACATTTTATGCATTTGTACACAAATAAATAAATAA [XGTACX_site2652],8.49 ± 0.42
8,ACTTTAAAAAGATTCACACAAAATATATAAAAATAT [CACACA_site5334],8.54 ± 0.5
9,ATATCAATTTTTGGTGGTACGTAGGAAGTTTCAGAA [XGTACX_site6881],8.63 ± 0.4
10,TACGAAAGGTAATATTGTACATTACAAAATTTTATA [XGTACX_site5512],8.64 ± 0.39
11,AATAAGCAGAAACACACACACAAAAAAAAAAAAAAA [CACACA_site719],9.55 ± 0.68
12,TATGTATAAATATTAACACACAAAAAAAAAAAAAAA [CACACA_site6938],8.74 ± 0.4
13,ATATAAACAAAGCAGTGCACGTAAACAAAACATATA [CACACA_negctrl_site1076],9.4 ± 0.38
14,GTTTGATAACACCTACAAACTCTTTTTTTTTTTTTT [CACACA_negctrl_site1134],8.53 ± 0.44
15,CATAATATTAAATCAGTGCAAATATACAGAATAAAT [GTGCAC_site9786],9.07 ± 0.47
16,AAATGAAGATTTAAATGTACGAGAGGGTATACAAAT [XGTACX_site5075],8.95 ± 0.42
17,GACTTCTCCATATACACACACCAACAAATATAAAAA [CACACA_site7331],9.24 ± 0.38
18,AAATTTATAAATTAAAGTACATATTTCTTGAATATT [XGTACX_site859],8.45 ± 0.35
19,TATTAAATTATATAGACACACATTATGTATATATAT [CACACA_site345],8.87 ± 0.41
20,TATAGATACACTTTGTGTACATAAAAATTGTATTAA [XGTACX_site7137],8.67 ± 0.4

row,Sequence,gcPBM binding intensity (ln)
1,CTATACAATAAAAATTGTACATACATATATGTTATA [XGTACX_site5309],8.69 ± 0.34
2,AATTTTTCTTTTTTTTGTACAGAATATATATTTTAT [XGTACX_site1419],8.75 ± 0.48
3,ATAATATGTTATTAAGTGCATATTAATTATTATTAT,8.62 ± 0.36
4,ATATTTATGTAATGTTTGATTTTTTTTTTATGTGTG [CACACA_negctrl_site1422],8.76 ± 0.52
5,ACATATACATACATATGTACATATACATAAATATAT [XGTACX_site1285],8.98 ± 0.38
6,TATATATTTACATATTGTACAATATAAAAATAATTA [XGTACX_site19],8.45 ± 0.35
7,TACTGTTTAAAATATACACACATAATCAAAAAAAAA [CACACA_site2510],8.82 ± 0.38
8,AAAAAAAAAATTGAAAGTACACAAATGGGGTATTAT [XGTACX_site3960],8.79 ± 0.44
9,TCGTTATCCATCTTCACACATATATATAGTAATATA [CACACA_site5492],8.87 ± 0.35
10,TATATATATCTTTTGGTGCATATTTCGAATATATGT,8.95 ± 0.33
11,ACATTGCACCCGTGCACACATAGAAAAATAATTCTT [CACACA_site409],9.1 ± 0.41
12,GTAGTCCAAAAAAAGCGTACACAGAAAAAAAAAAAA [XGTACX_site4273],8.72 ± 0.45
13,ATAACAAAAATCCTTGTGCACTATTTTAATAGAGTC,8.85 ± 0.4
14,TACATCTTACTACTTATAATATAATATAGTATGAAT [TGCATGCA_negctrl_site8],8.49 ± 0.35
15,CATTATGATTAAATATGTACATATTATTATATAAAT [XGTACX_site2477],8.59 ± 0.4
16,TACAATATATTTATAGTGCATATTACTTTTAACTTT,8.65 ± 0.45
17,TCGTAATAATATAAATGTACTTTATTAATTAAAAGA [XGTACX_site3416],8.43 ± 0.4
18,AAAAAAAATTTTATCTGTACACATTTTTTTCTTTTT [XGTACX_site4229],8.77 ± 0.64
